{
  "source": "PubChem BioAssay AID588453",
  "about": "(National Center for Advancing Translational Sciences (NCATS), 2011)",
  "note": "About 4,000 (1%) of roughly 390,000 compounds were called active. Inconclusive means that the source gave no clear call. Such entries were picked first, then a sample of the others. The call rests on the fitted dose curve; in most records, active means well fitted inhibition curve with a large enough effect; inconclusive means small, poorly fitted or top-dose-only effect; inactive means no such curve, though single readings can be large or run the other way. A potency beside an inconclusive call is a rough fit, not a confirmed value. On the % scale 0 is the no-effect control and ±100 the full control effect; potency means the concentration at half of the fitted maximal effect; tags describe the fitted curve by direction and shape.",
  "data": [
    {"biological_target": "Thioredoxin reductase 1, cytoplasmic (Rattus norvegicus) (UniProt O89049)", "sequence (O89049 whole entry, looked up)": "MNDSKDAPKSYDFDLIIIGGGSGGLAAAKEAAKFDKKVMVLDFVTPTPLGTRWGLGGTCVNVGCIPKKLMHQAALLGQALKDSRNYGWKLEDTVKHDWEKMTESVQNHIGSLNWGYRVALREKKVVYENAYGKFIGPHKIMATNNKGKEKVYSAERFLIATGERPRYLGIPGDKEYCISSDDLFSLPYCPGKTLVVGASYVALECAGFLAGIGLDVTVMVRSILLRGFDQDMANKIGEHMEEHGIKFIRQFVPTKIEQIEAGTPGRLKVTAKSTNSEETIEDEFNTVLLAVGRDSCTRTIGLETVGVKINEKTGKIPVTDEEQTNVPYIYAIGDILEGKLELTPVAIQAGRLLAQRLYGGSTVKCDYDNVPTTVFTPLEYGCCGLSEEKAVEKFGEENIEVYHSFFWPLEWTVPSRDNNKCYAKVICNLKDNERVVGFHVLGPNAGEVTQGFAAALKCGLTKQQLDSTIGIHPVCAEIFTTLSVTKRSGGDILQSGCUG", "assay": "qHTS Assay for Inhibitors of Mammalian Selenoprotein Thioredoxin Reductase 1 (TrxR1): qHTS; further: nearly all actives have a fitted effect of over 65% in size", "settings": "recombinant rTrxR1, NADPH fluorescence consumption, selenite substrate; series mostly up to 114 µM; activity change, negative = inhibition: at the top concentration", "how_it_was_run": "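Rat TrxR1 (90 nM in the dispensed reagent) was pre-reduced with 400 uM NADPH for 5 min at room temperature, then incubated with compound for 15 min. After 400 uM selenite was added, NADPH fluorescence (Ex 340/Em 450 nm) was followed for 8 min.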", "values": [
      {"compound": "N#C/C(=N\\O)c1nc2ccccc2[nH]1", "activity change, negative = inhibition": "inactive: -17.9%"},
      {"compound": "O=C(CCl)N1N=C(c2ccco2)CC1c1cccs1", "note": "(centres undefined)", "Potency": "active: 2 µM"},
      {"compound": "CCN(c1ccccc1)S(=O)(=O)c1cc(C(=O)OCC(=O)c2c(N)n(C)c(=O)n(C)c2=O)ccc1C", "Potency": "inconclusive: 89.1 µM [inhibitor, partial curve, poor fit]"},
      {"compound": "Cc1cccc(/N=C/c2c(O)ccc3oc4c(c23)CCCC4)n1", "Potency": "inconclusive: 89.1 µM [inhibitor, single point]"},
      {"compound": "CN(C)CCNC(=O)/C(=C/c1ccc(-c2ccc(Cl)cc2)o1)NC(=O)c1ccccc1", "activity change, negative = inhibition": "inactive: -10.5%"},
      {"compound": "NS(=O)(=O)c1ccc(N=Nc2c(=O)[nH]n3c(=O)c4c([nH]c23)CCCC4)cc1", "Potency": "inconclusive: 56.2 µM [inhibitor, partial curve, poor fit]"},
      {"compound": "Cc1cc(NC2CCCCC2)nc(-n2nc(C)cc2C)n1", "activity change, negative = inhibition": "inactive: 18.9% [at 57.1 µM]"},
      {"compound": "C=C[C@@H]1c2cccc(C)c2N(S(=O)(=O)c2ccc(C)cc2)[C@H](c2ccccc2)C1(C#N)S(=O)(=O)c1ccccc1", "note": "(some centres undefined)", "Potency": "inconclusive: 50.1 µM [inhibitor, partial curve]"},
      {"compound": "Cc1ccc2[nH]c(=O)c(C(c3nnnn3C3CCCC3)N3CCCc4ccccc43)cc2c1", "note": "(centres undefined)", "Potency": "inconclusive: 44.7 µM [inhibitor, partial curve, poor fit]"},
      {"compound": "O=C(Nc1nc2ccccc2[nH]1)c1cccc([N+](=O)[O-])c1", "activity change, negative = inhibition": "inactive: 4.4% [at 57.1 µM]"},
      {"compound": "Cc1ccc(S(=O)(=O)c2nc(S(=O)(=O)CCO)sc2N2CCOCC2)cc1", "Potency": "inconclusive: 89.1 µM [inhibitor, single point]"},
      {"compound": "Cc1noc(C)c1S(=O)(=O)N(C)C[C@H]1Oc2c(NC(=O)Nc3ccc(C(F)(F)F)cc3)cccc2C(=O)N([C@H](C)CO)C[C@@H]1C", "activity change, negative = inhibition": "inactive: 4.84%"},
      {"compound": "Cc1ccc(-n2c(O)c(C=Nc3ccccc3-c3n[nH]c(=S)[nH]c3=O)c3ccccc3c2=O)cc1C", "Potency": "inconclusive: 79.4 µM [inhibitor, partial curve]"},
      {"compound": "C=CCn1c(-c2cccn(Cc3ccc(Cl)cc3Cl)c2=O)n[nH]c1=S", "Potency": "inconclusive: 15.8 µM [inhibitor, partial curve]"},
      {"compound": "Oc1cc2c(cc1CN1CCc3ccccc3C1)OCO2", "Potency": "inconclusive: 35.5 µM [inhibitor, partial curve]"},
      {"compound": "CC(Sc1n[nH]c(=O)[nH]c1=O)C(=O)OCc1ccccc1", "note": "(centres undefined)", "activity change, negative = inhibition": "inactive: -2.67%"},
      {"compound": "O=C(Nc1ccc(S(=O)(=O)NCc2ccco2)cc1)c1ccc(F)cc1", "Potency": "inconclusive: 31.6 µM [inhibitor, partial curve, poor fit]"},
      {"compound": "COc1ccc(C(=O)NCC(=O)N/N=C/c2ccc([N+](=O)[O-])s2)cc1OC", "Potency": "inconclusive: 15.8 µM [inhibitor, full curve]"},
      {"compound": "Cc1ccc(S(=O)(=O)N2CCN(c3nc(-c4ccnnc4)nc4ccccc34)CC2)cc1", "Potency": "inconclusive: 89.1 µM [inhibitor, single point]"},
      {"compound": "COc1ccccc1C(=O)NN1C(=O)C2C3C=CC(O3)C2C1=O", "note": "(centres undefined)", "Potency": "inconclusive: 56.2 µM [inhibitor, partial curve, poor fit]"},
      {"compound": "COC1=C(N2CCOCC2)C(=O)c2ccccc2C1=O", "Potency": "inconclusive: 56.2 µM [inhibitor, single point]"},
      {"compound": "C/C(CC(=O)Nc1ccc2c(c1)OCO2)=N\\NC(=O)c1ccc(N)cc1", "Potency": "inconclusive: 79.4 µM [inhibitor, partial curve]"},
      {"compound": "N#Cc1cccc(N=Cc2c(O)ccc3ccccc23)c1", "activity change, negative = inhibition": "inactive: -6.65%"},
      {"compound": "CN(Cc1ccccc1)C(=O)CCS(=O)(=O)c1ccc2c(c1)n(C)c(=O)c(=O)n2C", "Potency": "inconclusive: 70.8 µM [inhibitor, partial curve]"},
      {"compound": "Cc1ccc2nc(NC(=O)c3ccccc3F)sc2c1", "activity change, negative = inhibition": "inactive: 30.6% [at 57.1 µM]"},
      {"compound": "CCOC(=O)/C=C/C(=O)N1CCc2ccccc21", "Potency": "inconclusive: 70.8 µM [inhibitor, partial curve]"},
      {"compound": "Cc1cccc(N2CCN(S(=O)(=O)c3csc(C(N)=O)c3)CC2)c1C", "activity change, negative = inhibition": "inactive: 17.7%"},
      {"compound": "O=C(CSC1CC(=O)N(CC(c2ccccc2)c2ccccc2)C1=O)Nc1ccc(Cl)cc1", "note": "(centres undefined)", "Potency": "inconclusive: 2.82 µM [inhibitor, partial curve, poor fit]"},
      {"compound": "Cc1[nH]n(-c2ccc([N+](=O)[O-])cc2)c(=O)c1C=NCCN1CCN(C(=O)c2ccc(F)cc2)CC1", "activity change, negative = inhibition": "inactive: -6.06% [at 57.1 µM]"},
      {"compound": "CS/C(=C\\[N+](=O)[O-])Nc1ccccc1", "Potency": "active: 1.26 µM"},
      {"compound": "COc1cc2[nH]c(Cl)c([N+](=O)[O-])c2cc1OC", "Potency": "active: 1.41 µM"},
      {"compound": "CCCCn1nc(C(=O)Nc2nc3c(s2)CCCC3)c2ccccc2c1=O", "activity change, negative = inhibition": "inactive: 9.4%"},
      {"compound": "CCOc1cccc(-c2c(C(=O)N/N=C/c3sccc3C)nnn2-c2nonc2N)c1", "activity change, negative = inhibition": "inactive: 16.1%"},
      {"compound": "COc1ccc(N2C(=O)CC(N(CCc3ccc(S(N)(=O)=O)cc3)C(=S)Nc3ccccc3)C2=O)cc1", "note": "(centres undefined)", "activity change, negative = inhibition": "inactive: 12.3%"},
      {"compound": "CCCCCCC(=O)NNC(=O)c1c(O)c2ccccc2n(CC)c1=O", "activity change, negative = inhibition": "inactive: -16.2%"},
      {"compound": "COc1cc(/C=C/c2cc(C(=O)O)c3ccccc3n2)cc(OC)c1O", "Potency": "inconclusive: 79.4 µM [inhibitor, single point]"},
      {"compound": "CCCCN(C(=O)c1cc(-c2ccco2)nc2ccccc12)c1c(N)n(CCCC)c(=O)[nH]c1=O", "Potency": "inconclusive: 14.1 µM [inhibitor, partial curve]"},
      {"compound": "O=C(c1ccccc1Cl)N1CCNCC1", "Potency": "inconclusive: 56.2 µM [inhibitor, single point]"},
      {"compound": "O=[N+]([O-])c1c(NCCCO)cc(SCc2ccco2)c2nonc12", "Potency": "active: 14.1 µM"},
      {"compound": "Cc1c(C(=O)OC(C)C)sc(NC(=O)C2c3ccccc3Oc3ccccc32)c1C(=O)OC(C)C", "activity change, negative = inhibition": "inactive: 22.3%"},
      {"compound": "CCOc1ccc(C2C(C(=O)c3ccco3)=C(O)C(=O)N2CCN2CCOCC2)cc1", "note": "(centres undefined)", "Potency": "inconclusive: 79.4 µM [inhibitor, partial curve]"},
      {"compound": "O=C(NCc1cccnc1)C1CCC(c2ccc(Cl)cc2)CC1", "note": "(centres undefined)", "activity change, negative = inhibition": "inactive: 5.14% [at 57.1 µM]"},
      {"compound": "COC(=O)c1ccc(NC(=S)NCCC2=CCCCC2)cc1", "Potency": "inconclusive: 2.51 µM [inhibitor, partial curve]"},
      {"compound": "O=C(Nc1cccc(Cl)c1)c1ccccc1", "activity change, negative = inhibition": "inactive: 8.88% [at 57.1 µM]"},
      {"compound": "C/C(=C\\C(=O)c1ccccc1)Nc1cccc(O)c1", "Potency": "inconclusive: 15.8 µM [inhibitor, partial curve, poor fit]"},
      {"compound": "COCCc1nnc(NC(=O)C(C)C)s1", "activity change, negative = inhibition": "inactive: 5.19% [at 57.1 µM]"},
      {"compound": "CCn1c(-c2cc(C3CC3)nc3ccccc23)n[nH]c1=S", "Potency": "inconclusive: 35.5 µM [inhibitor, full curve]"},
      {"compound": "O=c1[nH]cc([N+](=O)[O-])cc1Br", "Potency": "inconclusive: 70.8 µM [inhibitor, partial curve]"},
      {"compound": "COc1ccc(CNC(=O)C[C@H]2C(=O)N(Cc3ccc(OC)cc3)C[C@@H]2Cc2ccccc2)cc1", "Potency": "inconclusive: 50.1 µM [inhibitor, partial curve]"},
      {"compound": "Cc1noc(NS(=O)(=O)c2ccc(N/C=C/C(=O)c3ccc4c(c3)OCO4)cc2)c1C", "Potency": "inconclusive: 70.8 µM [inhibitor, partial curve, poor fit]"},
      {"compound": "Brc1cccc[n+]1Cc1cccc(C[n+]2ccccc2Br)c1", "Potency": "inconclusive: 50.1 µM [inhibitor, partial curve, poor fit]"},
      {"compound": "CCOc1cc(Br)cc(C2NC(=O)c3c(sc4c3CCN(C)C4)N2)c1O", "note": "(centres undefined)", "activity change, negative = inhibition": "inactive: -17.1%"},
      {"compound": "CC(=O)c1cccc(NC(=S)NC(=O)Cc2ccccc2)c1", "Potency": "inconclusive: 22.4 µM [inhibitor, partial curve, poor fit]"},
      {"compound": "CCCS(=O)(=O)c1nc(S(=O)(=O)c2ccc(C)cc2)c(NCc2ccco2)s1", "Potency": "inconclusive: 50.1 µM [inhibitor, partial curve, poor fit]"},
      {"compound": "Cc1ccsc1CCN1C(=O)N(c2ccccc2)C(=O)C1CC(=O)Nc1ccc(F)cc1", "note": "(centres undefined)", "activity change, negative = inhibition": "inactive: 8.04%"},
      {"compound": "CC(C)Cn1c(N2CCN(CC(=O)Nc3ccc(Cl)cc3)CC2)nc2ccccc21", "activity change, negative = inhibition": "inactive: 8.65%"},
      {"compound": "CCOC(=O)c1c[nH]c(=S)n(-c2ccccc2)c1=O", "activity change, negative = inhibition": "inactive: -6.12% [at 57.1 µM]"},
      {"compound": "Cc1ccc2[nH]c(=O)c(CN(CCCO)Cc3nnnn3Cc3ccco3)cc2c1", "Potency": "active: 28.2 µM"},
      {"compound": "O=C(CCN1CCCCC1)c1ccccc1", "Potency": "inconclusive: 0.355 µM [inhibitor, partial curve, poor fit]"},
      {"compound": "Cc1occc1-c1nnc(SCC(=O)c2ccc(Cl)cc2)n1CC1CCCO1", "note": "(centres undefined)", "Potency": "inconclusive: 39.8 µM [inhibitor, partial curve, poor fit]"},
      {"compound": "CCC(C)Sc1ccc([C@@H]2[C@@H]3C(=O)N(C)C(=O)[C@@H]3[C@]3(C(=O)OC)CCCCN23)cc1", "note": "(some centres undefined)", "Potency": "inconclusive: 70.8 µM [inhibitor, partial curve]"},
      {"compound": "CC(C)c1ccc(CNCCCSc2ncccn2)cc1", "activity change, negative = inhibition": "inactive: 29.9%"},
      {"compound": "COCCOC(=O)/C(=C/c1ccc(OC(=O)c2ccccc2)cc1)C(C)=O", "Potency": "inconclusive: 25.1 µM [inhibitor, full curve, poor fit]"},
      {"compound": "Cc1ccc(-n2c(=O)cc(N3CC(C)CC(C)C3)[nH]c2=O)cc1", "note": "(centres undefined)", "Potency": "inconclusive: 7.08 µM [inhibitor, full curve]"},
      {"compound": "Cc1ccc(C)c(N2CCN(C(=O)C3CCCCN3S(=O)(=O)c3ccc(F)cc3)CC2)c1", "note": "(centres undefined)", "Potency": "inconclusive: 56.2 µM [inhibitor, partial curve]"},
      {"compound": "CCCOC(=O)/C(=C\\c1ccc([N+](=O)[O-])o1)NC(=O)c1ccccc1", "activity change, negative = inhibition": "inactive: -15.2%"},
      {"compound": "O=C(NCCC(c1ccccc1)c1ccccc1)c1ccc(Br)o1", "Potency": "inconclusive: 14.1 µM [inhibitor, single point]"},
      {"compound": "CC(C)Cn1c(N)c(C(=O)COC(=O)CCc2nc3ccccc3c(=O)[nH]2)c(=O)n(C)c1=O", "Potency": "inconclusive: 70.8 µM [inhibitor, partial curve, poor fit]"},
      {"compound": "O=C(c1ccc(CS(=O)c2ccccc2Cl)o1)N1CCOCC1", "note": "(centres undefined)", "Potency": "inconclusive: 89.1 µM [inhibitor, single point]"}
    ]}
  ]
}
